Assay results reported in US12594349B2, “Compositions and methods for the targeting of PCSK9” (Scribe Therapeutics Inc., priority 2022, dated 2026).

Experiments:
[1] = tested on: B2M locus; format: cell-based; settings: HEK293T, LTRP5 constructs without ADD domain, scaffold 316 spacer 7.165, days 6/7 to 26/27
[2] = tested on: HBEGF; format: cell-based, human; settings: fold change in abundance of each domain in the library before and after diphtheria toxin selection; dXR repression of the HBEGF gene; criteria p-value <0.01 and log2(fold change) >2

B1: DOMAIN_27604: one of the top nine most effective repressor domains (protein, listed as Ailuropoda melanoleuca)
chain: LLTFEDVAVSFSEEEWELLDPPQKTLYNDVMQENYETVISLGLKLKNDTGNDQPISISALEMQASGSKVLRKARMKVAQKT
B1 was tested, and the “B2M repression compared with LTRP5-ZIM3” value [1] was “most effective” and the “Log2 (fold change)” value [2] was 2.8198.

B2: DOMAIN_718 (protein, listed as Pan paniscus)
chain: GSLEEGRRATGLPAAQVQEPVTFKDVAVDFTQEEWGQLDLVQRTLYRDVMLETYGHLLSVGNQIAKPEVISLLEQGEEPWS
B2 was tested, and the “Log2 (fold change)” value [2] was 3.9.

B3: DOMAIN_17905: one of the top nine most effective repressor domains (protein)
chain: EMGLLTFRDIAIEFSLEEWQCLDCAQRNLYRDVMLENYRNLVSLGIAVSKPDLITCLEQNKESQNIKRNKMVAKHPVMHSH
modifications: Pan troglodytes
B3 was tested, and the “B2M repression compared with LTRP5-ZIM3” value [1] was “most effective” and the “Log2 (fold change)” value [2] was 2.5038.

B4: DOMAIN_10123: one of the top nine most effective repressor domains (protein, listed as Rattus norvegicus)
chain: ALVTFEDVAVRFTQEEWALLDPSQKILYRDVMRETYRNLTSVGINWECWDLEACFRSLGRNLRVQVVKRKCELTNSGPCAE
With B4 the “B2M repression compared with LTRP5-ZIM3” value [1] was “most effective” and the “Log2 (fold change)” value [2] was 3.6356.

B5: DOMAIN_30173: one of the top nine most effective repressor domains (protein)
chain: VAFRDVIVDFTQEEWQQLKPAQKDLYRDVMMEIYWNLVSLDLETEGDMNEPDPEKDSWEDRTSIVVVEGLMRNGAQGYACEKAGIQGCRV
modifications: Phyllostomus discolor
For B5, the “B2M repression compared with LTRP5-ZIM3” value [1] was “most effective” and the “Log2 (fold change)” value [2] was 2.2538.

B6: DOMAIN7694e: one of the top nine most effective repressor domains (protein, listed as Columba livia)
chain: QDVVTFKDVAIYFSPEEWVRLSAGQRELYQEVMLDNYELVTSLDRESKLLYKMDPEEESCEGVPYSSADSGAPDSSSTSAC
With B6 the “B2M repression compared with LTRP5-ZIM3” value [1] was “most effective”.

B7: DOMAIN_7694 (protein, listed as Columba livia)
chain: B6 chain
With B7 the “Log2 (fold change)” value [2] was 3.7111.

B8: DOMAIN_20505: one of the top nine most effective repressor domains (protein, listed as Chlorocebus sabaeus)
chain: SQESVAFEDVAVYFTTKEWAIMVPAERALYRDVMLENYEAVAFVAVPPTSKPALVSHLEQGKESCFIRPPGVLSRSDWRAG
With B8 the “B2M repression compared with LTRP5-ZIM3” value [1] was “most effective” and the “Log2 (fold change)” value [2] was 3.4989.

B9: DOMAIN_15507: one of the top nine most effective repressor domains (protein)
chain: SKAPITFGDLAIYFSQEEWEWLSPIQKDLYEDVMLENYRNLVSLGLSFRRPNVITLLEKGKAPWMVEPARRRRGPDSGSKV
modifications: Cebus imitator
In the case of B9, the “B2M repression compared with LTRP5-ZIM3” value [1] is reported as “most effective” and the “Log2 (fold change)” value [2] is reported as 3.8531.
